# Measured values published in PubChem BioAssay AID624296 (National Center for Advancing Translational Sciences (NCATS), 2012).
# The campaign covered roughly 350,000 compounds. About 9,900 (2.8%) were called active. Inconclusive means that the source gave no clear call. Such entries were picked first, then a sample of the others. Calls follow the shape of the dose curve; as a rule, active = well fitted activation curve with a large enough effect; inconclusive = small, poorly fitted or top-dose-only effect; inactive = no such curve, though single readings can be large or run the other way. Potencies of inconclusive entries are left out as doubtful fits.
# Test: A quantitative high throughput screen for small molecules that induce DNA re-replication in MCF 10a normal breast cells. Also: nearly all actives have a fitted effect of over 50% in size. As to activity, positive = re-replication: % of control where 0% means no effect.
# Conditions: MCF 10A DNA re-replication, Hoechst nuclear intensity, 48 h; activity, positive = re-replication: at 46.1 µM (top of the series)
# Potency is read from the fitted curve at half-maximal effect; tags tell the direction and shape of the fitted curve.
SMILES,"activity, positive = re-replication",Potency
CCc1cc2c(N3CCN(C(=O)c4ccco4)CC3)ncnc2s1,inactive: -0.068%,–
Cc1cc(=O)[nH]c(SCC(=O)Nc2ncc(S(=O)(=O)c3ccc([N+](=O)[O-])cc3)s2)n1,–,"inconclusive [activator, single point]"
CCOC(=O)c1cc(S(=O)(=O)N2CCN(Cc3ccccc3)CC2)cn1C,inactive: 12.3%,–
CC(C)(C)c1ccc(Oc2ccc(N)cn2)cc1,inactive: -0.65%,–
Cc1cccc(C2=NN(c3ccccc3)[C@H](CO)[C@H]2c2ccc(Cl)cc2)c1,–,active: 2.31 µM
CCOC(=O)c1ccccc1NC(=O)Cn1cnc2c(cnn2C(C)(C)C)c1=O,–,"inconclusive [activator, single point]"
CCCN(CCC)c1nc(N)nc(-c2cc(Cl)ccc2OC)n1,inactive: 1.38%,–
Brc1cccc(C2Nc3cccc4cccc(c34)N2)c1,inactive: -15.9%,–
COc1ccc(NC(=O)c2ccccc2OCc2ccc(F)cc2)c(OC)c1,–,"inconclusive [activator, partial curve, poor fit]"
OCC1(Cc2ccccc2C(F)(F)F)CCN(Cc2ccccc2)CC1,inactive: 3.19%,–
Cc1cc(C)cc(N2CN=c3s/c(=C\c4ccco4)c(=O)n3C2)c1,inactive: -2.82%,–
CCN(C(=O)COC(=O)c1ccc(Cl)nc1)C1CCS(=O)(=O)C1 (stereo not given),–,"inconclusive [activator, single point]"
COc1ccc(Cn2c(O)c(C=Nc3ccc(O)cc3)c3ccccc3c2=O)cc1,–,active: 6.51 µM
OCCCn1c(-c2ccccc2)nc(=S)c2c1CCCC2,inactive: -0.0453%,–
CCNc1nc(C23CC4CC(CC(C4)C2)C3)cs1,–,active: 23.1 µM
CCN1C(=O)C(CC(=O)Nc2ccc(F)cc2)N(CCCN2CCN(c3ccc(F)cc3)CC2)C1=S (stereo not given),–,"inconclusive [activator, single point]"
COC(=O)c1cc(OC)c(OC)cc1NC(=O)c1ccc(C)cc1,inactive: 7.9%,–
CCn1c(C)nc2cc(S(N)(=O)=O)ccc21,–,active: 12.6 µM
COc1ccc(N2CCN(c3cc(C)c4ccc(O)cc4n3)CC2)cc1,inactive: 11.2%,–
O=C(Cc1nc2ccccc2[nH]1)c1ccc(Cl)cc1,–,"inconclusive [activator, single point]"
CN1CCN(CCOc2ccc(-c3ccccc3)cc2)CC1,–,"inconclusive [activator, partial curve]"
CC(=O)c1ccccc1NS(C)(=O)=O,inactive: 4.44%,–
COc1ccc2sc(-c3ccc(S(C)(=O)=O)cc3)c(C#CCO)c2c1,–,"inconclusive [activator, single point]"
COC(=O)c1c(NC(=O)CSc2n[nH]c(N)n2)sc(C)c1C,inactive: 14.4%,–
COc1ccc(OC)c(NC(=O)COC(=O)c2c3c(nc4ccccc24)CCCC3)c1,–,"inconclusive [activator, single point]"

SMILES,"activity, positive = re-replication",Potency
O=C(Nc1ccc(NC(=O)C23CC4CC(CC(C4)C2)C3)cc1)c1cc(F)c(F)cc1Cl,inactive: 1.65%,–
O=C(Cc1ccc(Br)cc1)OCC(=O)N1CCOCC1,inactive: 16.6%,–
Oc1ccccc1/C=C/c1noc(-c2ccccc2O)n1,–,"inconclusive [activator, partial curve, poor fit]"
CCOC(=O)c1sc(NC(=O)C(C)Sc2nnc(N)s2)nc1C (stereo not given),–,"inconclusive [activator, single point]"
O=C(C/C=N/OCc1ccccc1F)c1cnc(-c2ccc(Cl)cc2)s1,–,"inconclusive [activator, single point]"
COc1ccccc1/C=C1/C(=O)N(c2ccccc2)N=C1C,–,"inconclusive [activator, single point]"
CCc1ccc(NC(=O)CSc2nc3ccccc3c(=O)n2CCCN2CCC(C)CC2)cc1,–,"inconclusive [activator, single point]"
CCCCC(=O)NNC(=O)c1c(O)c2ccccc2[nH]c1=O,–,"inconclusive [activator, single point]"
COc1ccc(OC)c(C(O)CNC(=O)CN)c1 (stereo not given),inactive: 23.3%,–
CCCC(=O)OC[C@@H](OC(=O)CCC)[C@@H](OC(=O)CCC)[C@H](Cn1c2nc(=O)[nH]c(=O)c-2nc2cc(C)c(C)cc21)OC(=O)CCC,inactive: -9.13%,–
COc1cc(OC)cc(C(=O)N[C@H](C(=O)OCC(=O)c2c[nH]c3ccccc23)C(C)C)c1,inactive: 20.2%,–
O=C(NCc1ccc(N2CCCC2=O)cc1)Nc1cccc(Cl)c1,–,"inconclusive [activator, single point]"
Cc1cc(C)n2nc(C(=O)OCC(=O)c3ccccc3)nc2n1,–,"inconclusive [activator, full curve, poor fit]"
Cc1nc(COc2cc3oc(=O)cc(C)c3cc2Cl)cs1,inconclusive: -40.1% [activator],–
CN1/C(=C\C(=O)c2ccco2)c2ccccc2CC1(C)C,–,"inconclusive [activator, single point]"
CC(=O)Nc1ccc(NC(=O)C(Sc2ccccc2)c2ccccc2)cc1 (stereo not given),inactive: 2.55%,–
CCOC(=O)/C=c1\s/c(=C\c2ccc(C(=O)OC)cc2)c(=O)n1CC(=O)Nc1ccccc1,–,"inconclusive [activator, partial curve, poor fit]"
COc1ccc2nc3c(nc2c1)CCCC3,inactive: -1.3%,–
CCOc1cc(/C=C2\SC(=Nc3ccc(CC)cc3)NC2=O)ccc1OCC(=O)O,–,active: 18.4 µM
COc1ccc(CNC(=O)c2ccc(SC)cc2OC)cc1,inactive: 1.48%,–
COc1ccc(CN(CC(O)COCc2ccccc2)S(=O)(=O)c2ccccc2Br)cc1 (stereo not given),–,"inconclusive [activator, single point]"
COCCOC(=O)C1=C(C)NC2=C(C(=O)CC(C)(C)C2)C1c1ccc2c(c1)OCO2 (stereo not given),–,"inconclusive [activator, single point]"
CCOC(=O)c1ccc(Oc2cn[nH]c2-c2ccc(OCC(=O)NN)cc2O)cc1,inactive: 7.03%,–
O=C(CN1CCN(c2ncc(C(F)(F)F)cc2Cl)CC1)NCCNc1ncc(C(F)(F)F)cc1Cl,–,active: 18.4 µM
Cc1ccc(S(=O)(=O)NCCC(=O)OCC(=O)N2CCCC2=O)cc1,–,"inconclusive [activator, single point]"
